From the supplement of paper PMC11417369
± gives the standard deviation of the averaged measurements. The list shows a part of the results.

System: PfAP2-LT AP2 domain (GST-tagged)
Experiment: gcPBM binding intensity (ln(normalized median fluorescence intensity)); higher = stronger DNA binding
Outline: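 Each value is the highest Masliner-normalised natural-log median intensity across replicate spots of either orientation of a probe. The probes were primer-extended double-stranded 36-bp intergenic genomic sequences on an Agilent 4 × 180k array, alongside negative controls, exposed for 1 h to GST-tagged P. falciparum DNA-binding domains expressed in E. coli. Bound protein was picked up with Alexa488 anti-GST antibody and scanned at 488 nm.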

Sequence | gcPBM binding intensity (ln)
TTTTTTATTATATAATTGTATATAAAATTATAATTT [GTGCAC_negctrl_site733] | 8.32 ± 0.3
GAATGTATATTCATGTATTTATTATTATTATTATTA [XGTACX_negctrl_site156] | 8.54 ± 0.52
TAAAAATTAATATAAACACACAAAAATTAATAAATA [CACACA_site381] | 8.74 ± 0.51
TATAACAAGTTATAAAGTACAAATGTTGAATTTTAT [XGTACX_site4673] | 8.62 ± 0.42
TCGGGAGGGGGGAAGCGTACATATATAAAATTATTA [XGTACX_site4683] | 9.69 ± 0.37
TATAGATACAGATACACACACACACCGACATATATA [CACACA_site5832] | 10 ± 0.22
ATATGCCTAATAAAATGTACGTTTGTTTTATTTATT [XGTACX_site3833] | 8.95 ± 0.38
ATATATATATTTTGGTAGCACCTCCTTTTTTTTTTT | 8.89 ± 0.58
TATGTATTTATATTAACACACAAAAAAAAAAAAAAA [CACACA_site5070] | 8.62 ± 0.39
ATATGGCTAAAAGTTGCACACACACTAATAAAAAAA [CACACA_site9082] | 9.29 ± 0.37
ATTATTTTACTAAAAGATATTCCTTTTTTTTGTACT [CACACA_negctrl_site998] | 8.68 ± 0.45
TAAAAAATAAAAAAAGCACACACATATATATATATA [CACACA_site8567] | 9.77 ± 0.18
AAAATAAGAAATTGAAAAATTGAAAACAAAATTAAA [CACACA_negctrl_site1285] | 8.47 ± 0.58
TATAAATAAAAACACACACACATATATATATATATA [CACACA_site2319] | 9.88 ± 0.12
CCATTTTAAATATGCACACAGATGCACTAACCCATT [CACACA_site1883] | 9.18 ± 0.33
TTACAAATGTTTTACACACACATAATTGTATCAATT [CACACA_site6147] | 9.22 ± 0.38
ACTACTCCATTAAGTAGTACACAAAAAAAAAAAATA [XGTACX_site7031] | 8.51 ± 0.65
TAATAAAACATATATACACACATTATAAATACATAT [CACACA_site5014] | 9.17 ± 0.28
TTGGGGTATCTTCCTATGCACACTTGTTATGTACTA [CACACA_site831] | 9.23 ± 0.37
ATTATAGACACGCGCACACACAACAAAAAAAAAAAA [CACACA_site9180] | 9.73 ± 0.61
TTGCTCACAAGAAGCACACAAAAAAAGAAAAAAAAA [CACACA_site4047] | 8.72 ± 0.59
ATACTTTTAAATTGATGTACTTTATTTATAAGGTGA [XGTACX_site6746] | 8.48 ± 0.4
TTGATTACTAGAAATGCACACACTGATAAAATAAGG [CACACA_site4134] | 9.2 ± 0.32

Sequence | gcPBM binding intensity (ln)
TTTATACTTGTAAATGCACACATAAGATGCGACTAA [CACACA_site8662] | 8.94 ± 0.3
ATATCCTTAAAAGATACACACATATGAATATTTTGT [CACACA_site3847] | 9.05 ± 0.35
GTTTGTAAATATTTTACACACATATATATATATATA [CACACA_site1075] | 9.71 ± 0.14
GTTTTTTTATTTCATCGTACAAAAAAGAAGGCTTTA [XGTACX_site5291] | 8.34 ± 0.3
TAAATATGTATTCATACATGCACATATATATATATA [TGCATGCA_site584] | 9.36 ± 0.32
TTATATATTTATTTATGTACATATTTTTTTATTATA [XGTACX_site6115] | 8.91 ± 0.45
TTCACAAAATATTATTGTACATTAAAATATTTATAT [XGTACX_site2535] | 8.47 ± 0.42
TATAAAACGGATGAACAACAAATCATATGGCACAAA [TGCATGCA_negctrl_site608] | 9.14 ± 0.34
TACATGATATATCACACACACATATAAATATATATA [CACACA_site2831] | 9.55 ± 0.4
GAAAATTTCTTATTTTGTACACACAATAAATATTCA [XGTACX_site3267] | 8.77 ± 0.45
CAACATTCGTATATCACACATTTGCATGTTGTCAAT [CACACA_site4470] | 9.15 ± 0.4
GATTTAGTTATTTAAACATGCAATTTATATAGAATT [TGCATGCA_site47] | 8.34 ± 0.43
TATTTATACATACATACACACATATAGATTTATATT [CACACA_site7851] | 8.99 ± 0.41
TTATTTTTTATTATGTGTACATAACATCGCGATACA [XGTACX_site4359] | 8.97 ± 0.38
AAAACTTGTCAGAATGGACACACGAATTAAAGGCCT [CACACA_site1215] | 8.94 ± 0.36
ATATGATATATATTCGGTACACATATATATAAAGAG [XGTACX_site430] | 9.04 ± 0.5
TTTTTAATTTATTGTGTGCACACAACTATGAGTTTT | 9.63 ± 0.34
AAGTTTTCTTAAAATTGTACTTTTCAAAAATAATCT [XGTACX_site277] | 8.18 ± 0.38
ATTTAAATAATATTCACACACAAAATTATATTTTAA [CACACA_site219] | 8.77 ± 0.39
TATGTCAAATATATATGTACACAAATATACTATTAA [XGTACX_site2643] | 8.63 ± 0.51
ATAAAATATATATTAGTGCACTAAAGGAAAAAAAAT | 9.18 ± 0.51
AATATATATATTAGAGTGCACATAATTATTTGCTAA | 8.77 ± 0.37
AAAAATTTCATATTCACACACAAAAAAAAAAAATAT [CACACA_site1592] | 9.12 ± 0.5

Sequence | gcPBM binding intensity (ln)
TGATATATATATATATATATAACACACGCAAAAAAA [TGCATGCA_negctrl_site240] | 9.39 ± 0.26
ATAATCACAAATAATTGTACATTTTGTTATATATAT [XGTACX_site7704] | 8.82 ± 0.43
AATAAAAATTGGTAGGCACACATGGAACTATTAAAA [CACACA_site1257] | 9.05 ± 0.43
TATAAAAGGTAAGAGTGTACAAGTAAAAAATTTTTA [XGTACX_site771] | 8.89 ± 0.63
ATGAACTATATTAAATCACACATTATCATTTTATAT [CACACA_site4989] | 8.82 ± 0.43
ATTTTTTTTATGAGGTGTACTCATATAATAACTACA [XGTACX_site5074] | 8.62 ± 0.28
TATTTTTTTTTTTAATGTACAAACAAATTATGTTGG [XGTACX_site2873] | 8.46 ± 0.42
TTTTCTAAAGTAAGTTAAGATATGCAAAAAAAAGAA [GTGCAC_negctrl_site242] | 8.54 ± 0.44
ATATATATATATATATGTACACATTAATGTTTTTTT [XGTACX_site167] | 9.6 ± 0.13
TATCCCTTAGAATACACACCCATATGAGCGTGAACT [CACACA_site2951] | 8.81 ± 0.34
TCGTATATGGATTTTGCACACAATTATAATTTAAAT [CACACA_site868] | 9.09 ± 0.4
TATATATTTTAAAATAGTACATATTATATAACCCAT [XGTACX_site2194] | 8.71 ± 0.33
GTAATTTTTTTCTATACACACATATCTATAATATAT [CACACA_site7284] | 9.09 ± 0.32
TACTTATAATTTCAATGTACATATATATAATATCAT [XGTACX_site2424] | 8.68 ± 0.44
AATTAAATATTATAAACACACATATAGATTATTTTT [CACACA_site6538] | 8.65 ± 0.43
ATTTCTTATTAAATTACACACAAAGTAAATAAATCT [CACACA_site3924] | 8.65 ± 0.37
ATTTTAAATATGGAATGTACTTAAAAAAAATTTCAT [XGTACX_site5058] | 8.26 ± 0.33
TTGTTTTGGATTATCACACATATAATATATACTCAT [CACACA_site4780] | 8.9 ± 0.33
TTTTCCTTTTTTTTTACATGCAGATATAGAAAGGTA [TGCATGCA_site106] | 8.37 ± 0.4
TATAATAATATGGATTGTACATATATATTTAATTAA [XGTACX_site4327] | 8.46 ± 0.48
AAATACATAACTTAAAATTTGTTCATATCTATACAT [TGCATGCA_negctrl_site249] | 8.73 ± 0.47
TCTTTTTTGAACTAGCGTACATGAAAATATTTATAG [XGTACX_site7359] | 8.54 ± 0.48
TTATTACATATAAAGGAAAATAGCATCTAGATTAAA [XGTACX_negctrl_site435] | 8.49 ± 0.45

Sequence | gcPBM binding intensity (ln)
AAAAAAAAAAAAAAAAAATACATATACATTTGTGCA [CACACA_negctrl_site1431] | 8.84 ± 0.27
TTTTTATTTATATATAAGGAAAATGCGGTATATATT [CACACA_negctrl_site1770] | 8.53 ± 0.45
TAAATCCGTTTGATGGGTACATACATACATACATAT [XGTACX_site8889] | 8.91 ± 0.37
TTTTTATAAGCATAAAGTACAAATATTTTTTAGTTG [XGTACX_site4140] | 8.24 ± 0.49
ATTTATTTTAGTAAAGCACACGTGTAAAATATATCT [CACACA_site4820] | 8.95 ± 0.42
ACAATAAAATATGGCACACATATATATATATATTTA [CACACA_site3] | 9.22 ± 0.23
ACACAAAACAAAAAGGTGCTGTATAAATGGGTGTAT [GTGCAC_site9905] | 9.44 ± 0.49
CATATATAAAAAAACACACACATATTTATATTTATA [CACACA_site6682] | 9.22 ± 0.38
CATATTTCTTACATTTGTACTTAATAAAATTAATCA [XGTACX_site7224] | 8.59 ± 0.43
AAAAAAATTTATAAATATTTTATTAATATATTTACC [GTGCAC_negctrl_site690] | 8.34 ± 0.49
ACAAAATAAATATGAACACACACATTTATGCCTTTA [CACACA_site8346] | 9.2 ± 0.29
ATAATTATACATATTACACACTCTCTTGATCTTTTT [CACACA_site3853] | 9.05 ± 0.51
TTGTCTGACTAATTTTTTTCTGTTTGTACGTTCTTA [GTGCAC_negctrl_site602] | 8.95 ± 0.49
TTTTTATACAACTTATAATACATCTGAAAATATAAA [XGTACX_negctrl_site36] | 8.25 ± 0.33
TATCACATATTATGATGTACAAGGTTTCTGACTAAT [XGTACX_site2763] | 8.68 ± 0.52
CACATACACATACAAACACACATTATATATATATAT [CACACA_site8460] | 9.59 ± 0.41
CATCCATTATTAATATGTACATATGTATATATATTA [XGTACX_site1318] | 8.75 ± 0.41
GAAAAAAAAAAAAGGGGTACATTTATTTTATCAATA [XGTACX_site8331] | 8.46 ± 0.34
TTTTTTTTTTTTTTTTTTTTTTTCTTTATTTTTTTT [CACACA_negctrl_site703] | 8.16 ± 0.43
AACTTTTTACAAACAGGTACGCATATATATATATAT [XGTACX_site5081] | 9.745 ± 0.05
